Laboratory results from publication PMC12040169 (PLOS Biology, 2025).
Some of the results follow.

Test system: T1, C. trachomatis L2/434/Bu expressing GFP (CTL2-GFP)
T1 construct: L2/434/Bu GFP intracellular growth in HeLa cells
Design: species or system HeLa; C. trachomatis total inclusion area by high-content imaging, normalised to DMSO
Conditions: total inclusion area; 28.5 h, 10 µM; inhibitor
Procedure, shortened: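 Post-fluorescence-read fixation, DNA staining with Hoechst and high-content imaging; GFP inclusion area and number per well, and nuclei counts, used as proxies for bacterial growth and host viability.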

SMILES	% of control remaining
CC(C)CC12CN3CCN(CC(C3)/C1=N\N=C1/C3CN4CCN(C3)CC1(CC(C)C)C4)C2 [CBK265036]	92.9977
Cc1ccccc1CSCCNC(=O)Nc1ccc(Cl)cc1 [CBK268669]	107.699
c1cncc(COc2cncc(OC3CCNC3)n2)c1 (stereo not shown) [CBK077419T]	97.0675
CN1CCC(=NNC(=O)c2cc(O)c(O)c(O)c2)CC1 [CBK262660]	96.0442
CCCCN(C)c1c(CC)nc2ccc(C(=O)N3CCNC(=O)C3)cn12 [CBK145460]	95.048
Cc1ccnc(SCC(=O)c2cc(C)n(C3CC3)c2C)n1 [CBK304686]	111.665
O=S(=O)(c1ccccc1)c1nc(N2CCNCC2)cn2ccnc12 [CBK154875T]	109.364
CC(=O)Nc1nc(-c2cc3ccccc3oc2=O)cs1 [CBK287312]	77.7372
CC(=O)Nc1ccc(-c2nc3ccc(-c4nc5ccc(NC(C)=O)cc5[nH]4)cc3[nH]2)cc1 [CBK261165]	63.4789
Cc1cnc(C(=O)N[C@H]2C3CCCCC3[C@@H]2c2ccccc2)cn1 (stereo partly shown) [CBK285125]	106.637
Cn1ccnc1C(NC(=O)c1ccccn1)c1ccc(F)c(F)c1 (stereo not shown) [CBK283783]	99.9449
CCOc1ccc(-c2n[nH]c(C(=O)N/N=C3/C(=O)Nc4ccccc43)c2C)cc1 [CBK262889]	106.027
O=C(c1ccc(F)cc1)C1CCN(Cc2ccc3ccccc3c2)CC1 [CBK149122]	95.0583
CCn1cc(C(=O)N2C[C@H](C(=O)OC)[C@@H](c3ccccc3F)C2)cn1 [CBK283510]	112.858
c1ccc(CN2CCC(N3CCC(N4CCc5ccccc5C4)CC3)CC2)cc1 [CBK264730G]	98.7247
O=C(O)CC1C(=O)NCCN1Cc1ccc(F)c(F)c1 (stereo not shown) [CBK270008]	94.9219
N[C@H]1CCN2C(=O)c3cc(-c4ccc(F)cc4F)ccc3NC(=O)[C@H]12 [CBK289345]	118.741
COc1cccc(N2CCN(CC(=O)N3CCC(C(N)=O)CC3)CC2)c1 [CBK202881]	88.6656
CSc1ccc(-c2nccnc2OC(c2ccccc2)c2ccccc2)cc1 [CBK106797]	96.1102
COc1ccc2c(c1)C(C(C(=O)O)C(=O)O)c1ccccc1O2 (stereo not shown) [CBK266435]	107.781
O=C(OCc1ccc(S(=O)(=O)c2ccccc2)cc1)c1cc(O)nc2ccccc12 [CBK266782]	89.8925
CN(C)CCN(C)c1cncc(-c2cccc(N(C)C)c2)n1 [CBK065659]	64.5557
CCC1(CC)OC(N[C@@H](C)c2ccc(Cl)cc2)=NC1=O [CBK126666]	132.177
O=C(CN1C2CCC1CC(O)(c1ccco1)C2)Nc1ccc(F)cc1 (stereo not shown) [CBK284062]	73.969
Cc1c(C(=O)Nc2nc(-c3ccc(S(=O)(=O)N4CCOCC4)cc3)cs2)oc2ccc(Cl)cc12 [CBK267663]	93.5072
COc1ccc(NS(=O)(=O)c2ccc3c(c2)N(CC(=O)O)C(=O)CO3)cc1NS(C)(=O)=O [CBK297745]	93.007
Cc1ccc2oc(C(=O)Nc3sc4c(c3C(=O)NCC3CCCO3)CCC4)c(C)c2c1 (stereo not shown) [CBK266282]	133.655

SMILES	% of control remaining
Cc1ncccc1C(=O)N1CCC(c2cc3ccccc3cn2)CC1 [CBK284854]	57.7136
Cc1nnc(N2C(=O)c3oc4ccc(Cl)cc4c(=O)c3C2c2cccnc2)s1 (stereo not shown) [CBK267010]	99.6035
O=C(CSc1ncc(C(=O)O)n1-c1ccc(F)cc1)NCCc1ccc(F)cc1 [CBK297513]	113.068
Cc1ccc(NC(=O)c2ccccc2OCC(=O)NC23CC4CC(CC(C4)C2)C3)cc1Cl [CBK265091]	129.358
Cc1ccc2oc([C@H]3CN(C(=O)C(C)(C)NC(=O)OC(C)(C)C)C[C@@H]3C(=O)O)cc2c1 [CBK001600]	62.7807
O=C(N/N=C/C1C=Nc2ccccc21)c1cc([N+](=O)[O-])cc([N+](=O)[O-])c1 (stereo not shown) [CBK261485]	87.7562
Cc1c(C)n(Cc2ccccc2)c2ccc(C(=O)OCCN3CCOCC3)cc12 [CBK262427]	100.895
Cc1ccc(OCC(O)CN2CCN(c3ccccn3)CC2)cc1C (stereo not shown) [CBK058884]	66.6473
CN1CCC(N2CCN(C(=O)Nc3ccc4c(c3)OCCO4)CC2)CC1 [CBK155898]	73.0895
Cc1ccc(SCCCn2ccnc2)cc1 [CBK269733C]	72.2046
CS(=O)(=O)Nc1cc(-c2noc([C@@H]3CCCN3C3CCC3)n2)ccn1 [CBK288889]	108.062
CC(=O)N1CCc2sccc2C1c1ccc(NC(=O)c2ccc(F)cc2)cc1 (stereo not shown) [CBK286434]	86.1038
CC(C)(C)C1=CC2=NC3(CCCC3)[C@@H]3C[C@@H](O)[C@@H](O)[C@@H]3N2O1 [CBK303245]	90.3218
COc1ccc(CNC(=O)C(=O)NCc2ccccc2)cc1 [CBK262158]	102.685
O=C(NCc1ccco1)c1ccc2c(=O)n(-c3ccccc3)c(=O)[nH]c2c1 [CBK287823]	86.142
O=C(O)Cc1cc2c(n1Cc1ccc(F)cc1)CCCC2=O [CBK283866]	85.5762
O=c1[nH]nc2c(SCc3ccccc3)nccn12 [CBK288440]	70.1157
O=C(CSc1ccc(Cl)cc1)Nc1ccc(S(=O)(=O)N2CCOCC2)cc1 [CBK262723]	93.0246
O=C(NCc1cccs1)c1ccc(-n2ccnc2)c(-n2cccc2)c1 [CBK285366]	91.3324
CCCc1cc(C(=O)OC)c(NC(=O)c2c(C)noc2C)s1 [CBK058088]	23.2022
COc1cc(OC)c2nc(C(F)(F)F)cc(Cl)c2c1 [CBK006518]	30.7325
O=S(=O)(c1ccc(-c2csc(-c3ccccc3)n2)cc1)N1CCCCCC1 [CBK265504]	91.93
Cc1nc2cccnc2n1C1CCN(C(=O)NCc2ccccc2)CC1 [CBK282291]	85.8627
O=C(Nc1ccccc1C(=O)O)c1ccc(Cl)c(S(=O)(=O)N2CCCCC2)c1 [CBK261763]	91.8625
CN1c2ccccc2C(c2ccccc2)=NS1(=O)=O [CBK022873]	99.5885
O=C(c1ccco1)N1CCN(C(=O)c2c(F)cccc2F)CC1 [CBK144479]	93.2832
CCOC(=O)CN1CC(O)CC1c1cccc(C(F)(F)F)c1 (stereo not shown) [CBK304169]	100.46

SMILES	% of control remaining
CCc1cc(OCc2ccc(Cn3nc(NC(C)=O)c4ccccc43)cc2)c2ccccc2n1 [CBK048402]	90.5653
Cn1nc(-c2ccccc2)cc1[C@H]1CN2CC[C@H]1C[C@@H]2CNC(=O)NCc1ccccc1 [CBK289098]	88.7926
Cn1cc(-c2ncc(OCc3ccc4c(c3)OCO4)nc2N)cn1 [CBK145168]	108.596
O=C(c1ccccc1F)N1CCC(n2c(=O)oc3ccccc32)CC1 [CBK284346]	66.6316
Cc1ccnc(SCc2ccc(F)cc2Cl)n1 [CBK270290]	70.3534
COc1ccccc1CC(=O)N1CCN(Cc2ccco2)C[C@@H]1C [CBK285481]	71.7893
OCCN1CC2(CCN(CC3COc4ccccc4O3)CC2)c2ccccc21 (stereo not shown) [CBK143955]	116.082
COC(=O)c1c(NC(=O)COc2ccc(Br)cc2)sc2c1CCC2 [CBK263369]	106.944
COC(=O)CN1C(=O)S/C(=C/c2cc(C)n(-c3ccc4ncccc4c3)c2C)C1=O [CBK265275]	99.5737
Cc1ccc2oc(C(=O)N(C)Cc3c(C)nn(C)c3C)c(C)c2c1 [CBK281631]	99.6684
OCc1c(-c2ccc(F)cc2)[nH]c2ncccc12 [CBK283328]	81.0914
Cc1cccc(C)c1NC(=O)CN1CCC(Oc2cncc(OCCN3CCOCC3)n2)C1 (stereo not shown) [CBK084489]	90.8726
O=C(O)C1CCC1C(=O)N1CCN(c2nc3ccc(Cl)cc3s2)CC1 (stereo not shown) [CBK057108]	39.6044
Brc1ccc(-n2cnnn2)cc1 [CBK027696]	13.9013
Cc1nc(C)c(C(=O)Nc2c(C)noc2C)s1 [CBK200313]	122.947
COc1ccc(-c2nc(NC(=O)C3CCC(OC)CC3)cnc2-c2cccc(C)c2)cn1 (stereo not shown) [CBK036813]	102.896
O=C(O)C(Cc1ccccc1)NS(=O)(=O)c1ccc(I)cc1 (stereo not shown) [CBK268807]	108.083
O=C1CNC(=O)C2(C/C=C/C[C@H]3COCC[C@H]3N1)CCN(CCOc1ccccc1)CC2 [CBK292077]	114.559
OC1CCN(Cc2c(-c3cccs3)[nH]c3ncccc23)CC1 [CBK283318]	105.171
COc1ccc(Cl)cc1C(=O)Nc1cnn(CCCC(=O)O)c1 [CBK269855]	75.3838
CCc1nc(C(C)NCC(=O)Nc2cc(C)nn2C)cs1 (stereo not shown) [CBK305118]	107.774
Cc1ccc(CNc2cc(C)ccn2)cc1 [CBK005419]	54.939
CN(C)C(CNc1cncc(-c2cccc(Cl)c2)n1)c1cccnc1 (stereo not shown) [CBK037247]	67.119
CCc1ccc(C(=O)C(C)OC(=O)c2nc3nc(C)cc(C)n3n2)cc1 (stereo not shown) [CBK305023]	59.906
Cc1cc(C)nc(N2CCC(CC(=O)NCCOc3cccc(F)c3)CC2)n1 [CBK285996]	107.357
